Data from PubChem BioAssay AID624296 (National Center for Advancing Translational Sciences (NCATS), 2012).
The whole screen tested about 350,000 compounds, of which about 9,900 (2.8%) were called active. The inconclusive results got no clear call from the source; some entries with a clear call stand among them for comparison. Calls follow the shape of the dose curve; as a rule, active = well fitted activation curve with a large enough effect; inconclusive = small, poorly fitted or top-dose-only effect; inactive = no such curve, though single readings can be large or run the other way. Potencies of inconclusive entries are left out as doubtful fits.

Test: A quantitative high throughput screen for small molecules that induce DNA re-replication in MCF 10a normal breast cells. Also: nearly all actives have a fitted effect of over 50% in size. As to activity, positive = re-replication: % of control where 0% means no effect.
Details: MCF 10A DNA re-replication, Hoechst nuclear intensity, 48 h; activity, positive = re-replication: at 46.1 µM (top of the series)
Potency is read from the fitted curve at half-maximal effect; tags tell the direction and shape of the fitted curve.

SMILES | Potency | activity, positive = re-replication
COc1ccc(/C=N/NC(=O)Nc2cccc3nsnc23)cc1 | inconclusive [activator, full curve] | –
COc1ccc(-n2nc([N+](=O)[O-])c(=NCc3ccco3)n2O)cc1 | – | inactive: -1.66%
Nc1ncnc2nc(SCC(=O)Nc3cccc(C(F)(F)F)c3)[nH]c12 | – | inactive: 9.35%
COc1cc(C(=O)Nc2cccc(-c3nnc(-c4ccco4)o3)c2)ccc1OC(C)=O | inconclusive [activator, single point] | –
O=C(NNC(=O)c1ccc(F)cc1)c1ccncc1 | – | inactive: -1.92%
CCCCNC(=O)CCn1c(=S)[nH]c2cc3c(cc2c1=O)OCO3 | – | inactive: 0.701%
COc1cc(/C=N/NC(=O)c2ccc(COc3cc(C)ccc3C(C)C)cc2)cc(OC)c1O | inconclusive [activator, single point] | –
O=C(Nc1cccc(-c2nc3ccccc3s2)c1)c1cc(-n2cnnc2)ccc1Cl | inconclusive [activator, single point] | –
Cc1cc(=O)n2c3ccccc3n(CC(O)CN3CCN(Cc4ccccc4)CC3)c2c1C#N (stereo not drawn) | inconclusive [activator, single point] | –
COc1ccc2c(Cn3cnc4cc([N+](=O)[O-])ccc4c3=O)cc(=O)oc2c1 | active: 9.2 µM | –
COc1ccc(C(=O)Nc2nnc(Cc3ccccc3)s2)c(OC)c1 | inconclusive [activator, partial curve, poor fit] | –
CN(CC(=O)Nc1ccccc1Cl)C(=O)Cn1cnc2ccc(Cl)cc2c1=O | – | inactive: -3.37%
COc1ccc(N2CCN(C(CNS(=O)(=O)c3ccccc3)c3ccccc3)CC2)cc1 (stereo not drawn) | – | inactive: 1.57%
CC(C)NC(=S)NC(=O)/C=C/c1cccc2ccccc12 | inconclusive [activator, single point] | –
Cc1nc(C)c(C(=O)N/N=C/c2cc(Br)ccc2O)s1 | inconclusive [activator, single point] | –
Cn1c(N)nc2nc[nH]c2c1=S | inconclusive [activator, partial curve] | –
O=C(Nc1c2c(nn1-c1ccccc1)CS(=O)(=O)C2)C1CCCC1 | inconclusive [activator, partial curve, poor fit] | –
Cc1ccc(/C=N/NC(=O)CCCOc2ccc(Cl)cc2Cl)cc1 | active: 14.6 µM | –
COCCOC(=O)c1[nH]c2c(c1C)C(=O)CC(c1ccc(F)cc1)C2 (stereo not drawn) | inconclusive [activator, single point] | –
CCN(CC)c1ccc(C(=S)N2CCN(c3ccccc3)CC2)cc1 | – | inactive: -32.9%
Cc1c(C)n(Cc2ccc(Cl)cc2)c2ccc(C(=O)NCCCN3CCOCC3)cc12 | active: 23.1 µM | –
CCc1c(C)sc(NC(=O)C2CC2)c1C(=O)OC(C)C | inconclusive [activator, partial curve, poor fit] | –
Cn1c(=NC(=O)CCl)sc2ccccc21 | active: 14.6 µM | –
Cc1cccn2cc(-c3ccc(S(=O)(=O)N4CCOCC4)cc3)nc12 | – | inactive: 1.16%

SMILES | Potency | activity, positive = re-replication
Cc1cccc(CC(=O)NCC(=O)NCc2cc(=O)n(C)c(=O)n2C)c1 | inconclusive [activator, single point] | –
Cc1ccc(C2CC(=O)NC(SCC(=O)OCc3ccccc3)=C2C#N)o1 (stereo not drawn) | active: 20.6 µM | –
CCOC(=O)/C=C1\SCC(=O)N1CC(=O)Nc1cccc(F)c1 | – | inactive: -3.5%
Cc1ccc2c(c1)/C(=C/c1ccccc1F)C(=O)N2 | – | inactive: 5.61%
Cc1nn(C)c(C)c1N=Cc1c(O)ccc2ccccc12 | inconclusive [activator, single point] | –
Cc1ccc(-c2csc(NC(=O)CSc3nc(C)cc(=O)[nH]3)n2)cc1 | inconclusive [activator, single point] | –
Cc1ccc(C)c(-c2cc(C(=O)NNC(=S)NCC(C)C)c3ccccc3n2)c1 | inconclusive [activator, single point] | –
O=c1oc(-c2ccc([N+](=O)[O-])cc2)nc2ccccc12 | – | inactive: 2.76%
CCOC(=O)c1sc(Nc2nc3cc4c(cc3s2)OCO4)cc1C | inconclusive [activator, single point] | –
Cc1noc(NS(=O)(=O)c2ccc(N/C=C\C(=O)c3ccc4c(c3)OCO4)cc2)c1C | active: 5.8 µM | –
CN(C)S(=O)(=O)c1cccc(NC(=O)COc2ccc(S(=O)(=O)N3CCOCC3)cc2Cl)c1 | – | inactive: -1.09%
COC1=C(OC)C(=O)C(Sc2ccc3ccccc3c2)=CC1=O | active: 5.8 µM | –
Cc1cc(C)c(OCC(=O)N(C)CC(=O)Nc2ccc(N3CCOCC3)cc2)c(C)c1 | inconclusive [activator, single point] | –
Nc1nc(N)c(N=O)c(OCC2CCCCC2)n1 | inconclusive [activator, single point] | –
Cc1cccc(-n2ncc3c(NCc4ccco4)ncnc32)c1 | active: 16.4 µM | –
COc1cccc(CC(=O)OCC(=O)NCCc2ccc(F)cc2)c1 | – | inactive: 0.0523%
COc1ccc(NC(=O)c2ccc(-c3ccc([N+](=O)[O-])cc3)o2)cc1OC | inconclusive [activator, partial curve, poor fit] | –
COc1ccccc1N(C)S(=O)(=O)c1ccc(Cl)c(C(=O)NCc2cccnc2)c1 | – | inactive: 4.97%
CCCOc1ccc(CN(C)c2ncnc(N)n2)cc1 | inconclusive [activator, single point] | –
O=C(NC(=S)Nc1ccc(CN2CCOCC2)cc1)c1ccc2c(c1)OCCO2 | inconclusive [activator, single point] | –
Cn1c(=O)c([N+](=O)[O-])c(Oc2ccccc2)c2ccccc21 | inconclusive [activator, single point] | –
O=C(Nc1ccc(NC(=O)c2ccccn2)cc1)C(=O)Nc1ccc2c(c1)OCCO2 | – | inactive: -0.11%
O=C(CCCN1C(=O)/C(=C/c2cccs2)SC1=S)Nc1cccc(C(=O)O)c1 | inconclusive [activator, partial curve, poor fit] | –
O=C(CC12CC3CC(CC(C3)C1)C2)N/N=C/c1ccc([N+](=O)[O-])o1 | inconclusive [activator, partial curve, poor fit] | –
